PubChem BioAssay (NCI)
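Five compound concentrations were applied to cells in 96-well plates for 48 hours; endpoints were derived by simple linear interpolation of the resulting dose-response curve. Here, GI50 denotes the concentration required for 50% inhibition of growth. TGI marks complete inhibition of growth.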

These molecules were tested on NCI-H322M lung (assay: DTP human tumour cell line panel, 48 h).
Molecule `O=C(O)CCC1CCc2cccc3occ1c23` (stereo unspecified) has a TGI greater than 100 µM.
In the case of `O=C1CCC2(c3ccccc3)Nc3cc(Cl)ccc3N12` (stereo unspecified), the TGI is reported as greater than 100 µM.
In the case of `O=C(O)c1c[nH]cc1C(=O)O`, the TGI is reported as greater than 100 µM.
In the case of `O=C1N[C@@H]([C@H](CCCCCO)OC(=O)c2ccccc2)CO1`, the TGI is reported as greater than 100 µM.
In the case of `CCOc1ccc(NC(=O)CC2SC(N)=NC2=O)cc1` (stereo unspecified), the TGI is reported as greater than 100 µM.
In the case of `CS(=O)(=O)Nc1cc(-c2ccc3ncnc(Nc4ccc5c(cnn5Cc5ccc(F)cc5)c4)c3c2)cnc1Cl`, the GI50 is reported as 1.49 µM and the TGI is reported as 4.51 µM.
`Cc1nnc2sc(-c3ccc(-c4ccccc4Cl)o3)nn12` gave a TGI greater than 100 µM.
`CC(C)(C)OC(=O)CN1CCNCCN(CC(=O)OC(C)(C)C)CC1` showed a TGI greater than 100 µM.
For `CSc1nc(-c2ccccc2)c2c(n1)-c1ccccc1CC2`, the TGI was greater than 100 µM.
`CC(CCc1ccc2c(c1)c(=N)c1ccc(N)cc1n2O)CC(C)(C)C` (stereo unspecified) was tested, and the TGI was 2.88 µM.
`COc1ccc(-c2c(C#N)c(S)n(C3OC(CO)C(O)C(O)C3O)c(=O)c2C#N)cc1` (stereo unspecified) showed a TGI greater than 100 µM.
With `CC1OC(c2ccccc2)=CC(OCc2ccccc2)[C@H]1OCc1ccccc1` (stereo partly specified) the TGI was greater than 10 µM.
In the case of `[O-]c1on[n+]2c1c(Nc1ccc(Cl)cc1)nc1ccccc12`, the TGI is reported as greater than 100 µM.
Work on `Cc1cc(C2(c3cc(C)c(O)c(C(=O)O)c3)OS(=O)(=O)c3ccccc32)cc(C(=O)O)c1O` yielded a TGI greater than 100 µM.
`COc1cc(/C=C(/c2ccccc2)[N+](=O)[O-])c(OC)c2c1OCO2` was tested, and the GI50 was 1.66 µM and the TGI was 3.04 µM.
`O=C1C(=O)N(C2C3CC4CC(C3)CC2C4)C(=O)C(=O)C1c1nc2ccccc2o1` (stereo unspecified) showed a TGI greater than 100 µM.
`Cc1ccc(C(=O)C#Cc2cn(C3CC(O)C(CO)O3)c(=O)[nH]c2=O)cc1` (stereo unspecified) gave a TGI greater than 100 µM.
`CC1=CCS(=O)(=O)C1C(O)C1=C(C)CCCC1(C)C` (stereo unspecified) gave a TGI greater than 100 µM.
`Nc1nc(Nc2cccc(F)c2)nc2ccccc12` was tested, and the GI50 was 31.3 µM and the TGI was greater than 100 µM.
`CC(Oc1ccc(OCC2CCCCC2)cc1)C(=O)N(CCO)CCO` (stereo unspecified) showed a TGI greater than 100 µM.
For `CC(C)=CCC/C(C)=C/Cc1c(O)ccc2c1[nH]c1cc(O)c(C)cc12`, the TGI was greater than 25 µM.
`Nc1nnc(-c2ccco2)c(-c2ccco2)n1` showed a TGI greater than 100 µM.
For `CC(=O)Oc1ccccc1C(=O)C1c2cccc(O)c2C(=O)c2c(O)cccc21`, the TGI was 3.72 µM.
With `C=C(C)[C@@H]1CC[C@@]2(C)[C@H]1[C@H]1CCC3[C@@]4(C)CC[C@H](O)C(C)(C)[C@@H]4CC[C@@]3(C)[C@]1(C)C[C@@H]2O` (stereo partly specified) the TGI was greater than 100 µM.
With `CCOC(=O)c1c(C)n(Cc2ccc(Cl)cc2Cl)c2c1cc1oc(=O)c(=O)n3c(Cc4ccccc4)nc2c13` the GI50 was 4.27 µM and the TGI was 13.1 µM.
`CCc1cc2c(cc1CCCC(=O)O)CC1(Cc3ccc(C(=O)O)cc3C1)C2` (stereo unspecified) showed a TGI greater than 100 µM.
Molecule `O=C(Nc1ccc([N+](=O)[O-])cc1)C(=O)C(C(=O)c1ccccc1F)C1OC(=O)c2ccccc21` (stereo unspecified) has a TGI of 92 µM.
Molecule `Fc1ccc(Nc2nc(NCCNc3ccnc4cc(Cl)ccc34)nc(N3CCOCC3)n2)cc1` has a GI50 of 11.8 µM and a TGI of 24.5 µM.
Molecule `COC(=O)C(=O)C(C(=O)C=C(C)C)C(=O)C(=O)Nc1cccc(C(C)=O)c1` (stereo unspecified) has a TGI greater than 100 µM.
Work on `O=[N+]([O-])c1ccc(N=NN2CCCC2)cc1` yielded a TGI greater than 100 µM.
Work on `Clc1ccc(CN2COc3c(cc(Cl)c4cccnc34)C2)cc1` yielded a TGI of 12.1 µM.
Work on `C=C[C@]1(C)C=C2C(=O)[C@@]3(O)OC[C@@]4(CCCC(C)(C)C43O)C2(O)C(O)C1` (stereo partly specified) yielded a GI50 of 13.5 µM and a TGI of 35.3 µM.
Molecule `COC(=O)c1cc(-c2c[nH]cc2C(=O)OCc2ccccc2)cn1S(=O)(=O)c1ccc(C)cc1` has a TGI greater than 100 µM.
`NC1CNC(=O)c2cscc21` (stereo unspecified) showed a TGI greater than 100 µM.
In the case of `CC[CH2][Pb]([CH2]CC)([CH2]CC)[NH]S(=O)(=O)c1ccc(C)cc1`, the GI50 is reported as 0.0671 µM and the TGI is reported as 0.336 µM.
`Cc1cccc(Nc2cn(CCOc3ccccc3)c(=O)n(CCOc3ccccc3)c2=O)c1` was tested, and the TGI was greater than 100 µM.
Molecule `COC(=O)[C@@H]1CCCN1C(=O)[C@@H]1CCCN1C(=O)[C@@H](Cc1c[nH]c2ccccc12)NC(=S)Nc1cc(C(F)(F)F)cc(C(F)(F)F)c1` has a GI50 of 19.6 µM and a TGI greater than 100 µM.
`CN1C(=O)C(O)CC1c1cccc(F)c1` (stereo unspecified) was tested, and the TGI was greater than 100 µM.
